Measured values reported in paper PMC4336329 (PLoS ONE, 2015).
The campaign covered roughly 310,000 compounds. About 2,200 (0.71%) showed an effect of 50% or more. The effect is printed as a negative number. The list shows a part of the results.

molecular target: human ether-à-go-go-related gene (hERG) potassium channel (human, UniProt Q12809); test: primary screen, population patch clamp on CHO cells stably expressing hERG
Sequence (Q12809 whole entry, looked up): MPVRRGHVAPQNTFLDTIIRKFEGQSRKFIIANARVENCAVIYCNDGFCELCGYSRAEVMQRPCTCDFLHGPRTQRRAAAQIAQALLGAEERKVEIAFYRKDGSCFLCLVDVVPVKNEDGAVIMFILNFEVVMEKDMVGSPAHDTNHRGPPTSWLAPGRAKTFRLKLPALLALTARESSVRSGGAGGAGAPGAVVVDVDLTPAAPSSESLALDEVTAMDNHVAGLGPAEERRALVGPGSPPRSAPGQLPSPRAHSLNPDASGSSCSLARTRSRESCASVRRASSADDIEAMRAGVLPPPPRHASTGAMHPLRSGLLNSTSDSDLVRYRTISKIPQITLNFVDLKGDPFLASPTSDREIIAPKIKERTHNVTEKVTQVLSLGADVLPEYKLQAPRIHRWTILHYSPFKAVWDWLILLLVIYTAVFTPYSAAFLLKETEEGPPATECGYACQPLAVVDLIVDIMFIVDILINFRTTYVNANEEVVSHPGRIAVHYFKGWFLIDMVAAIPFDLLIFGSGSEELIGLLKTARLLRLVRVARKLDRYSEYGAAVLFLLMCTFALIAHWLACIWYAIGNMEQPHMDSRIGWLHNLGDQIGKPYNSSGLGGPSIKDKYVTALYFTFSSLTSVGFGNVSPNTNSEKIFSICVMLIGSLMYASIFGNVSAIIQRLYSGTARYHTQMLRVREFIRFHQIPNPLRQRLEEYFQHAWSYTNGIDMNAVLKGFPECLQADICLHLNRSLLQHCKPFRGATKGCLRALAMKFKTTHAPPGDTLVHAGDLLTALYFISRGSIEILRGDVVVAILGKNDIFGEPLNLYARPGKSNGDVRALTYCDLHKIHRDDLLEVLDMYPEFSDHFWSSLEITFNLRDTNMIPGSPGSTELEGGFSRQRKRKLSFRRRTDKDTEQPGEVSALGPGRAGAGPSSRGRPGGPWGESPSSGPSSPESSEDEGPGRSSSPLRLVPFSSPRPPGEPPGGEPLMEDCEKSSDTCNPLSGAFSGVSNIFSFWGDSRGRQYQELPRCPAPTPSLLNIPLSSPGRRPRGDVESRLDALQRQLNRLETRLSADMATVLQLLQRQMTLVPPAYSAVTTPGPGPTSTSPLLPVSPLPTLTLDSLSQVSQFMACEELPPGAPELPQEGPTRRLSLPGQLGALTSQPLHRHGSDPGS

First: COc1cccc(C(=O)N(Cc2ccccc2)Cc2cc3cc4c(cc3[nH]c2=O)OCCO4)c1
Second: Cc1ccc(N(Cc2cc3cc(C)ccc3[nH]c2=O)C(=O)c2cccs2)cc1
The “hERG current change (%, negative = inhibition) at 1uM” value of the first is lower: 5.94% for the first, 13.5% for the second.

Compared with `Cn1nnnc1SCC(=O)Nc1ccccc1N1CCCCC1`, `COc1ccc(NC(=O)CSc2nnc(C)n2N)cc1S(=O)(=O)N1CCCCC1` is higher in “hERG current change (%, negative = inhibition) at 1uM” value: -2.11% for the first, 7.99% for the second.

Compared with `CCOC(=O)c1c(CS(=O)(=O)c2ccccc2)n(C)c2cc(Br)c(O)cc12`, `COc1cc2c(C(=O)O)c(C)n(C)c2c2ccccc12` is higher in “hERG current change (%, negative = inhibition) at 1uM” value: 6.21% for the first, 19% for the second.

Going from `Cc1ccc(NC(=O)c2ccc(OC(=O)COc3ccc(Cl)c(C)c3)cc2)cc1` to `CCOC(=O)C1=NNC(C(=O)c2ccc(OC)cc2)C1c1ccccc1` (stereo not shown), the “hERG current change (%, negative = inhibition) at 1uM” value falls from 9.75% to 5.18%.

Going from `CCOC(=O)C1(Cc2cccc(OC)c2)CCCN(Cc2cc(OC)c(O)c(OC)c2)C1` (stereo not shown) to `COc1ccc(/C=C/C(=O)c2cc(Cl)cc(Cl)c2O)c(OC)c1`, the “hERG current change (%, negative = inhibition) at 1uM” value rises from 5.61% to 14.1%.

First: CCc1cccc(C)c1NC(=O)CNCc1ccccc1.O=C(O)C(=O)O
Second: Cc1nn(Cc2ccccc2)c(C)c1C(=O)NCc1ccccc1F
The “hERG current change (%, negative = inhibition) at 1uM” value of the first is lower: 8.15% for the first, 11.3% for the second.

First: COC(=O)C1=C(c2ccc3ccccc3c2)C[C@@H]2CC[C@H]1N2C(=O)NC1CC1
Second: CCCN1CCC(NC(=O)c2cccc(Oc3ccccc3)c2)CC1
The “hERG current change (%, negative = inhibition) at 1uM” value of the first is higher: 14.4% for the first, -26.7% for the second.

Going from `S=c1[nH]cnc2scc(-c3ccc(Cl)cc3)c12` to `O=C(O)c1cccc(CSc2nnc(-c3ccc(Cl)cc3)o2)c1`, the “hERG current change (%, negative = inhibition) at 1uM” value rises from 10.5% to 12.3%.

Compared with `CCOC(=O)c1ccc(Nc2nnc(C(C)(C)C)c(=O)[nH]2)cc1`, `Cc1nnc(SCC(=O)NCc2ccc(Cl)cc2)[nH]c1=O` is lower in “hERG current change (%, negative = inhibition) at 1uM” value: 5.69% for the first, 1.28% for the second.

Compared with `Cc1c(Cl)ccc2sc(NC(=O)c3ccco3)nc12`, `Cn1c(O)c(N=NC(=O)c2ccco2)c2ccccc21` is lower in “hERG current change (%, negative = inhibition) at 1uM” value: 18.7% for the first, 12.1% for the second.

Compared with `O=C1N[C@@H](Cc2cn(S(=O)(=O)c3ccc([N+](=O)[O-])cc3)c3ccccc23)C(=O)N[C@H]1Cc1ccccc1`, `CC(=O)CC(c1ccc([N+](=O)[O-])cc1)c1c(O)c2ccccc2oc1=O` (stereo not shown) is higher in “hERG current change (%, negative = inhibition) at 1uM” value: 13.5% for the first, 13.9% for the second.

First: COc1cccc(C2c3c(oc4ccccc4c3=O)C(=O)N2CCCN(C)C)c1OC (stereo not shown)
Second: CN(C)CCn1c2c(c(SCC(=O)Nc3cccc4ccccc34)nc1=O)CCCC2
The “hERG current change (%, negative = inhibition) at 1uM” value of the first is higher: 19.4% for the first, 0.674% for the second.

Going from `O=C(Nc1c2c(nn1-c1ccc(F)cc1)CS(=O)C2)c1ccc2c(c1)OCO2` (stereo not shown) to `Cc1cc2ncn(C(=O)c3ccc4c(c3)OCO4)c2cc1C`, the “hERG current change (%, negative = inhibition) at 1uM” value falls from 19.2% to -0.531%.

Going from `CC(=O)Nc1ccc(N)cc1` to `COc1ccc(S(=O)(=O)Nc2ccc(NC(C)=O)cc2)cc1OC`, the “hERG current change (%, negative = inhibition) at 1uM” value rises from 9.92% to 12.1%.

First: Cc1ccc(Cl)cc1NC(=S)N(CCCN1CCN(C)CC1)Cc1cccs1
Second: CC1CC(C)CN(CCCNC(=O)CN2C(=O)c3cccnc3Oc3ccc(Cl)cc32)C1 (stereo not shown)
The “hERG current change (%, negative = inhibition) at 1uM” value of the first is lower: -11.9% for the first, -9.7% for the second.

Going from `COc1cccc(/C=N/NC(=O)Cn2nc(C)c([N+](=O)[O-])c2C)c1O` to `COc1cccc(/C=N\NC(C)=O)c1OC/C=C/c1ccccc1`, the “hERG current change (%, negative = inhibition) at 1uM” value rises from 4.39% to 17.8%.

Compared with `COc1ccc(CCNC(=O)CSc2nnc(CNC(=O)c3c(F)cccc3Cl)o2)cc1OC`, `CCOc1ccc(CCNC(=O)COC(=O)CNC(=O)c2ccc(Br)o2)cc1OCC` is lower in “hERG current change (%, negative = inhibition) at 1uM” value: 17.7% for the first, -2.04% for the second.

First: Cc1cc(=O)[nH]c(Sc2c(-c3ccccc3)c3ccccc3[nH]c2=O)n1
Second: O=[N+]([O-])c1ccccc1Nc1c2ccccc2nc2ccccc12
The “hERG current change (%, negative = inhibition) at 1uM” value of the first is higher: 3.54% for the first, -18.4% for the second.

Compared with `O=C(CSc1nnc(NCc2ccccc2)s1)N1CCOCC1`, `O=C(CSCc1ccc(Cl)cc1)Nc1ccccc1C(=O)N1CCOCC1` is higher in “hERG current change (%, negative = inhibition) at 1uM” value: 0.553% for the first, 3.86% for the second.

Going from `CC(=O)c1cn(-c2ccc(Cl)cc2)c(=O)[nH]c1=O` to `O=C(c1ccc([N+](=O)[O-])cc1)N1CCSC1c1ccc(Cl)cc1` (stereo not shown), the “hERG current change (%, negative = inhibition) at 1uM” value falls from 6.76% to -33.8%.

Compared with `CCOc1ccccc1NC(=O)c1cnccn1`, `CCOc1cc(/C=C2\SC(=S)N(C(C(=O)O)c3ccccc3)C2=O)ccc1O` (stereo not shown) is higher in “hERG current change (%, negative = inhibition) at 1uM” value: 9.24% for the first, 12.9% for the second.

Going from `COc1ccc(OCCn2cc(/C(N)=N/O)c3ccccc32)cc1` to `COc1ccc(/C=C2/SC(=S)N(NS(=O)(=O)c3ccccc3)C2=O)cc1`, the “hERG current change (%, negative = inhibition) at 1uM” value rises from -6.35% to 3.19%.

Going from `CC(=O)Oc1oc(-c2ccccc2)nc1/C=N/c1ccccn1` to `O=C(COC(=O)c1ccco1)Nc1nnc(-c2ccccc2)o1`, the “hERG current change (%, negative = inhibition) at 1uM” value rises from -2.1% to 16.1%.

First: CCC(C(=O)NCC1CCCO1)N(Cc1ccc(F)cc1)C(=O)CNS(=O)(=O)c1ccccc1 (stereo not shown)
Second: CC(NC(=O)C1CCN(C(=O)Nc2ccccc2)CC1)c1ccccc1Cl (stereo not shown)
The “hERG current change (%, negative = inhibition) at 1uM” value of the first is higher: 10.7% for the first, 5.29% for the second.

Compared with `N#Cc1c(-c2ccccc2)c(-c2ccccc2)nn(CC(=O)NNC(=O)Nc2ccc(Cl)cc2)c1=O`, `O=C(COc1ccc2c(-c3ccccc3)cc(=O)oc2c1)Nc1cccnc1` is lower in “hERG current change (%, negative = inhibition) at 1uM” value: 9.08% for the first, 8.24% for the second.

Going from `Cc1ccc(NC2=NCCCS2)c(C)c1C` to `CCn1c(COc2ccc(Cl)c(C)c2)nnc1SCC(=O)N1CCCC1`, the “hERG current change (%, negative = inhibition) at 1uM” value falls from 4.85% to 0.0557%.

Compared with `CCCCCc1c(O)nc(SCCN2CCOCC2)[nH]c1=O.Cl`, `CC1CC(C)CN(CCCNC(=O)c2ccc3nc(N4CCOCC4)sc3c2)C1` (stereo not shown) is lower in “hERG current change (%, negative = inhibition) at 1uM” value: -0.95% for the first, -1.81% for the second.

First: COc1ccc(/C(O)=C2/C(=O)C(=O)N(CC3CCCO3)C2c2ccc(OC)c(OC)c2)cc1 (stereo not shown)
Second: COc1cccc(NC(=O)c2ccc(N3C(=O)C4CCC(C)CC4C3=O)cc2)c1 (stereo not shown)
The “hERG current change (%, negative = inhibition) at 1uM” value of the first is higher: 6.71% for the first, -5.87% for the second.

First: CCCCN1CCc2c(c3ccccc3n2Cc2ccccc2)C1
Second: O=C(CC(c1ccccc1)c1ccccc1)NCCOCc1ccccc1
The “hERG current change (%, negative = inhibition) at 1uM” value of the first is lower: -48.8% for the first, 17.4% for the second.

Going from `COC1=C[C@@H]2C3=C([C@@H]2C1=O)[C@@H](NC(C)=O)CCc1cc(OC)c(OC)c(OC)c13` to `COc1ccc(N(CC(=O)NC2CC3CCC2C3)S(=O)(=O)c2ccc(C)c([N+](=O)[O-])c2)cc1` (stereo not shown), the “hERG current change (%, negative = inhibition) at 1uM” value falls from 13.5% to 10.2%.

Going from `Cc1ccc(-c2noc(CCC(=O)N(C)c3ccccc3C)n2)cc1` to `CCOC(=O)c1nnn(-c2nonc2N)c1-c1ccc(C)cc1`, the “hERG current change (%, negative = inhibition) at 1uM” value falls from 10.2% to 4.41%.

First: CCN(CC)C(=O)CSc1nnc(SCc2ccc(Cl)cc2)s1
Second: O=C(c1ccc(Cl)cc1)C1CCCN(Cc2ccc(Oc3ncccn3)cc2)C1 (stereo not shown)
The “hERG current change (%, negative = inhibition) at 1uM” value of the first is higher: 17.5% for the first, -13.9% for the second.

First: CCN(CC)c1ccc(C2NCC(c3ccc([N+](=O)[O-])cc3)O2)cc1 (stereo not shown)
Second: COc1ccc(C2CC(c3ccccc3)Nc3nc(NS(C)(=O)=O)nn32)cc1 (stereo not shown)
The “hERG current change (%, negative = inhibition) at 1uM” value of the first is lower: 6.89% for the first, 12.8% for the second.

Compared with `CCCNC(=O)c1ccc2c(=O)n(Cc3ccco3)c(=S)[nH]c2c1`, `O=C(CN1C(=O)/C(=C/c2ccco2)SC1=S)Nc1ccc(C(=O)O)c(O)c1` is lower in “hERG current change (%, negative = inhibition) at 1uM” value: 10.3% for the first, 9.57% for the second.

Going from `Cc1cccc(-n2c(-c3cccc([N+](=O)[O-])c3)nc3nc4ccccc4nc32)c1` to `CCC1=NN2C(=N)/C(=C/c3ccc(OS(=O)(=O)c4ccccc4)cc3)C(=O)N=C2S1`, the “hERG current change (%, negative = inhibition) at 1uM” value rises from 0.927% to 15.9%.

Compared with `O=C(Nc1ccccn1)NC12CC3CC(CC(C3)C1)C2`, `CC1Oc2ccccc2N(CC(=O)N2CCCC2)C1=O` (stereo not shown) is higher in “hERG current change (%, negative = inhibition) at 1uM” value: 6.44% for the first, 10.1% for the second.

First: CCN1C(=O)C(=C/C=C/c2ccco2)C(=O)N(CC)C1=S
Second: CC(C)CC(NC(=O)/C(=C/c1ccco1)NC(=O)c1ccc(Br)o1)C(=O)O (stereo not shown)
The “hERG current change (%, negative = inhibition) at 1uM” value of the first is lower: -15.5% for the first, 17.3% for the second.

First: COC(=O)c1ccccc1-c1ccc(C(c2c(C)[nH][nH]c2=O)c2c(C)[nH][nH]c2=O)o1
Second: O=C(N=NC(=O)c1ccco1)c1ccc2c(O)n(N3C(=O)c4ccccc4C3=O)c(O)c2c1
The “hERG current change (%, negative = inhibition) at 1uM” value of the first is higher: 19.6% for the first, -0.215% for the second.

Going from `O=S(=O)(c1ccccc1S(=O)(=O)N1CCCCC1)N1CCCCC1` to `CNc1cc(N2CCCCCC2)ccc1[N+](=O)[O-]`, the “hERG current change (%, negative = inhibition) at 1uM” value falls from 7.93% to 4.89%.

Going from `CC(=O)c1ccc(N2CCN(C(=O)CN(C)S(=O)(=O)c3cnc[nH]3)CC2)cc1` to `O=C(CSc1ncnc2sccc12)N1CCN(C(=O)c2cccs2)CC1`, the “hERG current change (%, negative = inhibition) at 1uM” value falls from 2.11% to -8.79%.

Going from `CCOC(=O)C1CCN(C(=O)/C(C)=C\c2ccccc2)CC1` to `O=C(C1CC1)N1CCC(Oc2cccc(C(=O)N3CCCCC3CCO)c2)CC1` (stereo not shown), the “hERG current change (%, negative = inhibition) at 1uM” value rises from 13.9% to 15.6%.

Compared with `N#CC1=C(N)Oc2cc(O)ccc2C1c1ccccc1` (stereo not shown), `O=c1[nH]c(C2CCN(S(=O)(=O)c3ccc(F)cc3)CC2)nc2c1nnn2Cc1ccc2c(c1)OCCO2` is lower in “hERG current change (%, negative = inhibition) at 1uM” value: 17.3% for the first, 13% for the second.

In the case of `Cl.NCCCCCc1nnc(SCC(N)=O)o1`, the “hERG current change (%, negative = inhibition) at 1uM” value is reported as 2.96%.
